Assay results taken from PubChem BioAssay AID488969 (Vanderbilt High Throughput Screening Facility, 2010).
Whole data set: some 110,000 compounds, median “z-score” near -0.1, cut for the highest 2% near 2. This is one part of the list. Activity calls are given as the source filed them.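 Rule for the calls: active = z-score in the third read window above 3 or below -3; inactive = the rest.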

These compounds were tested against Metabotropic glutamate receptor 8 (Rattus norvegicus) (UniProt P70579) (assay: rat mGluR8 modulators via GIRK flux, primary screen, cell-based, thallium flux, HTS (AID 488969)). Details: HEK293 rat mGluR8, GIRK (G protein-gated inwardly rectifying potassium channel) thallium flux, FluoZin2; at 10 µM; stronger effect = higher value; submaximal glutamate (EC20) added with thallium.
Chain of UniProt P70579 (P70579 whole entry, looked up): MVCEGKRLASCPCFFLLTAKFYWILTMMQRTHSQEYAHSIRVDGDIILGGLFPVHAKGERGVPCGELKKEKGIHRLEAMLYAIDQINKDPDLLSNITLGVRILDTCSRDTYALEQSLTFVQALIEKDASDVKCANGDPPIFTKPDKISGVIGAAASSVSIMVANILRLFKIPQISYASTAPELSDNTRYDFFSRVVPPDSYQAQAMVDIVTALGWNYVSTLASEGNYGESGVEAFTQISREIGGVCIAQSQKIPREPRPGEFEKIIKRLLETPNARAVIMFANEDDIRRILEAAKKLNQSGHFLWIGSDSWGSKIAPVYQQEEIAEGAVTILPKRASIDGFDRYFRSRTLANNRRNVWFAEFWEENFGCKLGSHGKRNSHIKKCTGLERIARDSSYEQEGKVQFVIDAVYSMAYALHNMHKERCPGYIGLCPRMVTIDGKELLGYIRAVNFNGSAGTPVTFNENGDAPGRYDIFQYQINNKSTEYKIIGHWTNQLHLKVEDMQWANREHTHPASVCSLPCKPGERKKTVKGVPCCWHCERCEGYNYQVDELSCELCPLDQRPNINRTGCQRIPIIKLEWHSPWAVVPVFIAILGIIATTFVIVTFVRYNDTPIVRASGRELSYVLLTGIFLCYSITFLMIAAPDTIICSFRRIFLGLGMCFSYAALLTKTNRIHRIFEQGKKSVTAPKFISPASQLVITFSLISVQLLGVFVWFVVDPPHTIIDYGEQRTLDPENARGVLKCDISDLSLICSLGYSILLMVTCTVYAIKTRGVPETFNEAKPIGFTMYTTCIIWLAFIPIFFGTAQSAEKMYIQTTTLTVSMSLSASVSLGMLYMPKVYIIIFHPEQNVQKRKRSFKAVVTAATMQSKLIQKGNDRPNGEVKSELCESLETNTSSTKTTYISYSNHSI

SMILES	z-score
S=C(Nc1ccc(Cl)c(Cl)c1)NC1CCCCC1	0.535
Cc1ccccc1NN=Nc1nc2c([nH]1)c(=O)n(C)c(=O)n2C	-0.189
COc1ccc(N2CCN(Cc3nc4scc(-c5ccccc5)c4c(=O)[nH]3)CC2)cc1	-0.00785
CCCCn1c(=O)c(CCC(=O)OCC(=O)Nc2ccc(F)c(Cl)c2)nc2ccccc21	-1.78
CCCCC(c1nnnn1C1CCCC1)N1CCN(C2CCCCC2)CC1 (stereo not given)	-0.391
O=Cc1nc(-c2ccc(Cl)cc2)n2ccccc12	-0.252
O=C(NCc1ccco1)C1CCCN(S(=O)(=O)c2cccc3cccnc23)C1 (stereo not given)	1.01
CCC(=O)Oc1ccc2oc(=O)cc(C)c2c1	-0.156
COc1ccccc1N=C1SC(C(=O)Nc2ccc(F)cc2)CC(=O)N1C (stereo not given)	-0.105
Cc1ccc(/C=C/C(=O)N2CCN(S(=O)(=O)c3c(C)c(C)cc(C)c3C)CC2)o1	0.442
CCC1(CC)Cc2ccccc2C(Nc2c(C)n(C)n(-c3ccccc3)c2=O)=N1	-0.52
O=C(OCC(=O)N1CCN(C(=O)c2ccco2)CC1)c1ccccc1O	0.0231
Cc1ccc(CC(=O)Nc2nc3ccccc3s2)cc1	-0.00106
Cc1ccc(-n2c(SCC(=O)Nc3ccc4c5c(cccc35)CC4)nc(O)c(C)c2=O)cc1	-0.384
CCN(C(=O)CN(C)Cc1c(F)cccc1Cl)c1c(N)n(Cc2ccccc2)c(=O)[nH]c1=O	-0.186
CC(=O)N1C(=O)C2(Nc3ccccc3N2)c2ccccc21	-0.647
O=S(=O)(Nc1cccnc1)c1ccc2c(c1)OCCO2	-0.833
Cc1cccnc1NC(=O)COc1ccc2oc3c(c2c1)CCCC3	0.188
Cc1c(-c2nnc(-c3ccc(C(F)(F)F)cc3)o2)cnn1-c1ccccc1	-0.209
O=C(CCCN1C(=O)c2ccccc2C1=O)Nc1nccs1	-0.252
C/C(=N\O)c1ccc(N2C(=O)C3CC=C(Cl)CC3C2=O)cc1 (stereo not given)	-0.163
O=C(CC(=O)NN=C1CCCC1)NCCc1ccccc1	-0.161
Cc1ccc(C(=O)NC(C)c2ccccc2)o1 (stereo not given)	-0.0546
CCCCNC(=S)NC(=O)c1ccc([N+](=O)[O-])cc1	active: 7.01
COc1cccc(OC)c1C(=O)NC(=S)Nc1cc(-c2nc3ccccc3[nH]2)ccc1Cl	-0.117
O=C(O)CCc1ccc(-c2ccc(Cl)cc2)n1CC(=O)O	-0.246
C/C(Cn1nnc([N+](=O)[O-])n1)=N\NC(=O)c1ccc(O)cc1O	-0.179
CS(=O)(=O)Nc1ccc(S(=O)(=O)NCCc2ccccc2)cc1	0.726
CCC(=O)Nc1cccc(NC(=O)CSc2nnnn2C)c1	-0.103
Cc1nc2ncnn2c(C)c1CCC(=O)Nc1ccc(S(=O)(=O)N2CCCCCC2)cc1	-1.77
